# Reference: the supplement of paper PMC11417369
# ± gives the standard deviation of the averaged measurements. This is one part of the list.
# Tested on: PfAP2-LT AP2 domain (GST-tagged)
# Test: gcPBM binding intensity (ln(normalized median fluorescence intensity)); higher = stronger DNA binding
# In short: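 An Agilent 4 × 180k array carrying primer-extended double-stranded 36-bp intergenic genomic probes and negative controls received GST-tagged P. falciparum DNA-binding domains expressed in E. coli, about 25 μg on average, for 1 h. The binding buffer contained 1× PBS, 1% milk, 0.2 mg/ml BSA, 0.5% salmon testes DNA and 0.03% Triton X-100. Binding intensity is the top Masliner-normalised natural-log median intensity across replicate spots of either probe orientation, read after Alexa488 anti-GST antibody staining and a 488 nm scan.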
row,Sequence,gcPBM binding intensity (ln)
1,TTAAAAAAAAAAAAAAGTACACACTTATAAAATATT [XGTACX_site1630],8.62 ± 0.47
2,ACCAATAAATATTTGGTGCATACATATATATATATA,9.425 ± 0.021
3,TCATACCTACATAAAAAAAGGGAAACAAAATGTCAT [XGTACX_negctrl_site34],8.7 ± 0.4
4,CTAAATAAAGTTAACACACACATAATATTTATATGT [CACACA_site6368],9.22 ± 0.36
5,TACATAAACATTTATACACACATTAGATATACATAT [CACACA_site6329],9 ± 0.37
6,TCAAAGAGTAGAAAGGTGCTTATGAACGAGATAATT,8.88 ± 0.49
7,TATTATAATTTTATATGTACACATATATAAATATAT [XGTACX_site4054],8.7 ± 0.33
8,TTTTACATATATATATGTACGAAAATGAAAAGGTCA [XGTACX_site5576],8.78 ± 0.35
9,AAAGTTACATTCGACACACACATAACAACTAAATAA [CACACA_site3419],9.32 ± 0.38
10,TTTATTTATTAATACACACACACACCCCCACAAAAT [CACACA_site240],10.1 ± 0.22
11,ACAAGAACAGAACGTACACACACATATATATATATA [CACACA_site9143],10.175 ± 0.0071
12,ACCTAATTTTTATATTGTACATAATATAATATATAT [XGTACX_site1715],8.95 ± 0.32
13,ACCTACACAAGCATTAAACACACAAAAGGGATACTT [CACACA_site8273],9.22 ± 0.4
14,AACTAAATTTATAATTGTACATTAAAATATGTATTA [XGTACX_site479],8.54 ± 0.51
15,ACATATACATTTATATGTACTCATTTATCTTATGTA [XGTACX_site6594],8.99 ± 0.42
16,TTTTTTAAAACTTCAAAAAGAGCACTTGAATTTTTT [GTGCAC_negctrl_site455],8.11 ± 0.59
17,AAATATTACATACACGCACACATTAATATATTTAAA [CACACA_site2603],9.15 ± 0.36
18,TATATACCTATATATACACACAAATACATAAGCTTC [CACACA_site1369],9.09 ± 0.35
19,AAATATTTTTTAATGTGTACATAGAACATATATATA [XGTACX_site3136],8.52 ± 0.38

row,Sequence,gcPBM binding intensity (ln)
1,ATAATATATATATTATGTACATATAAATTTTTTTTT [XGTACX_site5826],8.7 ± 0.42
2,TATAACTATAAAAGGAGTACTATATATATATATATA [XGTACX_site1388],9.37 ± 0.014
3,ACTTATTTATTTTTAGTGCATTTAGTTTTATTTTAT,9.03 ± 0.41
4,AGTATACACAAACACACACACACAAAAAAAAAAAAA [CACACA_site8036],9.56 ± 0.31
5,TATTTGCAATGCAAATGTACATGAATTTTTTTAATG [XGTACX_site7474],8.46 ± 0.39
6,TAAAAAGAAAAAAAGAGTACAAACAAAATAATAATT [XGTACX_site6071],8.99 ± 0.46
7,AATAGTACAAAAAAAAAAAAAAAAAAAAAAAAAAAA [CACACA_negctrl_site1376],8.16 ± 0.31
8,TCTACAAAATTATCATGTACATATTATTATAATTAT [XGTACX_site6585],8.68 ± 0.49
9,TTTTTTAAAAAACAAACACACACGTAGAAAAAAAAA [CACACA_site826],8.94 ± 0.46
10,TAATTATATGGATACACACACATACATTTACATAAC [CACACA_site5744],9.39 ± 0.29
11,TATAAATATAAATACACACACACACGCCAAAGCGTA [CACACA_site6181],9.6 ± 0.32
12,TTTTTTTATTTTTGTTGTACTTATAATTCTGTAAAA [XGTACX_site7344],8.4 ± 0.51
13,AAGAAAAATGTGTTTTTTTTTTTTTTTTTTTTCAAT [TGCATGCA_negctrl_site404],8.21 ± 0.42
14,TGTGAAATAAAATTTATACACACTTGCTAAATGATC [CACACA_site181],8.73 ± 0.37
15,CTTTTTTTTTTAAATAGTACTTTCTCGTATACTCAT [XGTACX_site1842],8.79 ± 0.47
16,AATATATTTATATATAGTACTTTTATAATATCGTTT [XGTACX_site6658],8.7 ± 0.41
17,AATACACATAATACATGTACTCACATTGTTATAACA [XGTACX_site4129],8.97 ± 0.33
18,TTTTTTATTTATTGTTATACATCTTACTACTTATAA [GTGCAC_negctrl_site381],8.88 ± 0.49
19,GATATGATTAACTTATGTTATTCTTGATGATTACGT [CACACA_negctrl_site354],8.86 ± 0.38

row,Sequence,gcPBM binding intensity (ln)
1,TACAAATTAATATGTACACACAAATATAAATATGTA [CACACA_site7016],9.01 ± 0.36
2,TACGTTATATACAACTGTACTTGGATAATTATTAAC [XGTACX_site5614],8.81 ± 0.38
3,TTTTCTTTTTTGAACTGTACGCGTAAATTTAAAAAG [XGTACX_site882],8.29 ± 0.38
4,AAGTTTTTTTCTTTTTTTCTCTCTTTTTTTTTTTTT [XGTACX_negctrl_site613],8.54 ± 0.46
5,ATTAATTTAATTTGAATTATTTTATTATATTATTAT [XGTACX_negctrl_site10],8.47 ± 0.44
6,GTTTGAATATATCAGGTGCATTTATAATTCATATGA,8.68 ± 0.37
7,TATATATCTTTATGCACACACAAAGAAAATTTTCCT [CACACA_site7366],9.13 ± 0.43
8,ATAAGAAGAAGAAAAACACACATATGTAAATATATA [CACACA_site3138],9.09 ± 0.54
9,ATATTATAGATATACACACACACATGCATGCACATA [CACACA_site6203],9.72 ± 0.17
10,AGATGAACTAAAAAGGTGCTAAATATGTGACCACTG [GTGCAC_site9406],8.78 ± 0.49
11,TAATTAAATATTTCAGTGCATTATTTTATGATCCAT [GTGCAC_site9456],8.69 ± 0.49
12,ATTTAGAATGTTCCTACACACCAAATTTAAGTGTGC [CACACA_site7161],9.27 ± 0.4
13,TACATACACAGACACACACACATATAAATATAAATA [CACACA_site7641],9.78 ± 0.28
14,TTTTTTTTAGTATGAACACACATATAGATTATAAAA [CACACA_site7391],8.35 ± 0.41
15,TAAAAATATATTATATGTACGTATAACAATGTATGA [XGTACX_site8606],8.71 ± 0.39
16,GTATAATATTCATATTCACACATTAAAATATATTTA [CACACA_site4879],8.6 ± 0.33
17,ACCTAATATTATTAAACATGCACATTTGCATAAATA [TGCATGCA_site870],8.68 ± 0.37
18,CAAAATGAAAGGAAAAGTACATTTAAATGAATAAAT [XGTACX_site8241],8.88 ± 0.52
19,AAATAATTCAAAAAAACACACAAATTACAAAATAAA [CACACA_site269],8.92 ± 0.55
